{"source": "the RNAGym collection of RNA variant scans (doi:10.1093/nar/gkz1192)", "parents": {"B1": {"name": "CPEB3 Ribozyme (parent)", "chain": "UAACAGGGGGCCACAGCAGAAGCGUUCACGUCGCAGCCCCUGUCAGAUUCUGGUGAAUCUGCGAAUUCUGCUGUAUAUCUC"}}, "note": "Read counts are not given, so values of variants with three or more changes are uncertain."}
{"variants_of": "B1", "experiment": "self-cleavage, relative activity (ratio to wild type); higher = more cleavage; in vitro, sequencing", "summary_of_the_method": "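CPEB3 self-cleaving ribozyme mutant libraries were made by rounds of error-prone PCR, barcoded, and transcribed in vitro with T7 RNA polymerase for 5 hours at 37°C. Cleavage occurred during transcription and a 15 min DNase I step before EDTA stop. RNAs were reverse transcribed with template switching and Illumina-sequenced, with DNA sequencing mapping barcodes to variants. Relative activity is the variant's cleaved/total read fraction divided by wild type's (minimum 5 reads), averaged across three batches.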"}
{"variant": "UAACAGGGGGCCACAGCAGAAGCGUUCACGGCGCAGCCCCAGUCAGAUUCUGGUGAAUCUGCGAAUUCUGCCGUUUAUCUC", "note": "[U31G U41A U72C A75U]", "self-cleavage": 0.24}
{"variant": "UAACAGGGGGCCACAGCAGAAGCGUUCACGGCGCAGCCCCCGUCAGAUUCUGGUGAAUCUGUGAAUUCUGCUGUAUAUCUC", "note": "[U31G U41C C62U]", "self-cleavage": 0.11}
{"variant": "UAACAGGGGGCCACAGCAGAAGCGUUCACGGCGCAGCCCCUGCCAGAAUUUGGUGAAUCUGCGAAUUCUGCUGUAUAACUC", "note": "[U31G U43C U48A C50U U78A]", "self-cleavage": 0.06}
{"variant": "UAACAGGGGGCCACAGCAGAAGCGUUCACGGCGCAGCCCCUGCCAGAUGCUGGUGAGUCCGCGAAUUCUGCUGUAUAUCUC", "note": "[U31G U43C U49G A57G U60C]", "self-cleavage": 0.12}
{"variant": "UAACAGGGGGCCACAGCAGAAGCGUUCACGGCGCAGCCCCUGUCAGACUCUGGUGAAUCCGCGAAUUCUGCUGUAUAUCUC", "note": "[U31G U48C U60C]", "self-cleavage": 0.13}
{"variant": "UAACAGGGGGCCACAGCAGAAGCGUUCACGGCGCAGCCCCUGUCAGACUCUGGUGAAUCUGCGAAUUCUGCCGUAUAUCUC", "note": "[U31G U48C U72C]", "self-cleavage": 0.11}
{"variant": "UAACAGGGGGCCACAGCAGAAGCGUUCACGGCGCAGCCCCUGUCAGAUACUGGUGAAUCUGCGAAUUCCGCUGUAUAUCUC", "note": "[U31G U49A U69C]", "self-cleavage": 0.14}
{"variant": "UAACAGGGGGCCACAGCAGAAGCGUUCACGGCGCAGCCCCUGUCAGAUACUGGUGAAUCUGCGAAUUCUGCAGUAUACCUC", "note": "[U31G U49A U72A U78C]", "self-cleavage": 0.08}
{"variant": "UAACAGGGGGCCACAGCAGAAGCGUUCACGGCGCAGCCCCUGUCAGAUCCUGAUGAAUCUGCGAAUUCUGCUGUACAUCUC", "note": "[U31G U49C G53A U76C]", "self-cleavage": 0.32}
{"variant": "UAACAGGGGGCCACAGCAGAAGCGUUCACGGCGCAGCCCCUGUCAGAUUCAGGUGAAUCUGCGAAUUCUGCUGUAUAUCCC", "note": "[U31G U51A U80C]", "self-cleavage": 0.62}
{"variant": "UAACAGGGGGCCACAGCAGAAGCGUUCACGGCGCAGCCCCUGUCAGAUUCUGGCGAAUCUGCGAAUUCUGCCGUAUAUCUC", "note": "[U31G U54C U72C]", "self-cleavage": 0.89}
{"variant": "UAACAGGGGGCCACAGCAGAAGCGUUCACGGCGCAGCCCCUGUCAGAUUCUGGUGAACCUGCGAAUUCCGCUGUAUAUCUC", "note": "[U31G U58C U69C]", "self-cleavage": 0.12}
{"variant": "UAACAGGGGGCCACAGCAGAAGCGUUCACGGCGCAGCCCCUGUCAGAUUCUGGUGAAUCCGCGAACUCUGCCGUAUAUCUC", "note": "[U31G U60C U66C U72C]", "self-cleavage": 0.33}
{"variant": "UAACAGGGGGCCACAGCAGAAGCGUUCACGGCGCAGCCCCUGUCAGAUUCUGGUGAAUCUGCGAACUCUGCUGUACAUCUC", "note": "[U31G U66C U76C]", "self-cleavage": 0.2}
{"variant": "UAACAGGGGGCCACAGCAGAAGCGUUCACGUAGCUGCCCCUGCCAGAUUCUGGUGAAUCUGCGAAUUCCGCAGUAUAUCUC", "note": "[C32A A35U U43C U69C U72A]", "self-cleavage": 0.06}
{"variant": "UAACAGGGGGCCACAGCAGAAGCGUUCACGUAGCAGCCCCUGUCUGAUUCUGGAGAAUCUGCGAAUUCUGCUGUAUAUCUC", "note": "[C32A A45U U54A]", "self-cleavage": 0.23}
{"variant": "UAACAGGGGGCCACAGCAGAAGCGUUCACGUAGCAGCCCCUGUCUGAUUCUGGCGAAUCUGCGAAUUCUGCUGUAUAUCUC", "note": "[C32A A45U U54C]", "self-cleavage": 0.07}
{"variant": "UAACAGGGGGCCACAGCAGAAGCGUUCACGUAGCAGCCCCUGUCAGGUUCUGGUGAAUCCGCGAAUUCUGCUGUAUAUCUC", "note": "[C32A A47G U60C]", "self-cleavage": 0.38}
{"variant": "UAACAGGGGGCCACAGCAGAAGCGUUCACGUAGCAGCCCCUGUCAGAUUCUGGUGGGUCUGCGAAUUCUGCUGUAUAUCUC", "note": "[C32A A56G A57G]", "self-cleavage": 0.17}
{"variant": "UAACAGGGGGCCACAGCAGAAGCGUUCACGUAGCAGCCCCUGUCAGAUUCUGGUGGAUCUGCGAACUCUGCUGUAUAUCUC", "note": "[C32A A56G U66C]", "self-cleavage": 0.15}
{"variant": "UAACAGGGGGCCACAGCAGAAGCGUUCACGUAGCAGCCCCUGUCAGAUUCUGGUGGAUCUGCGAAUUCCGCUGUAUAUCUC", "note": "[C32A A56G U69C]", "self-cleavage": 0.14}
{"variant": "UAACAGGGGGCCACAGCAGAAGCGUUCACGUAGCAGCCCCUGUCAGAUUCUGGUGAGUCUGCGAAUUCUGCUGUUUAUCUC", "note": "[C32A A57G A75U]", "self-cleavage": 0.12}
{"variant": "UAACAGGGGGCCACAGCAGAAGCGUUCACGUAGCAGCCCCUGUCAGAUUCUGGUGAGUCUGCGAAUUCUGCUGCAUAUCUC", "note": "[C32A A57G U74C]", "self-cleavage": 0.08}
{"variant": "UAACAGGGGGCCACAGCAGAAGCGUUCACGUAGCAGCCCCUGUCAGAUUCUGGUGAUUCUGCGAAUUCUGCUGUAUAACUC", "note": "[C32A A57U U78A]", "self-cleavage": 0.1}
{"variant": "UAACAGGGGGCCACAGCAGAAGCGUUCACGUAGCAGCCCCUGUCAGAUUCUGGUGAAUCUGCGAGCUCUGCUGUAUACCUC", "note": "[C32A A65G U66C U78C]", "self-cleavage": 0.13}
{"variant": "UAACAGGGGGCCACAGCAGAAGCGUUCACGUAGCAGACCCUGUCAGAUUCUGGGGAAACUGCGAGUUCUGGUGUAUAUCUC", "note": "[C32A C37A U54G U58A A65G C71G]", "self-cleavage": 0.11}
{"variant": "UAACAGGGGGCCACAGCAGAAGCGUUCACGUAGCAGCACCUGUCAGAUUCUGGAGAAUCCGCGAAUUCCGCUGUAUACCUC", "note": "[C32A C38A U54A U60C U69C U78C]", "self-cleavage": 0.05}
{"variant": "UAACAGGGGGCCACAGCAGAAGCGUUCACGUAGCAGCGCCUGUCAGAUUCUGGUGAAGCUGCGAAUUCUGCUGUAUAUCUC", "note": "[C32A C38G U58G]", "self-cleavage": 0.1}
{"variant": "UAACAGGGGGCCACAGCAGAAGCGUUCACGUAGCAGCCCAUGUCAGAUUCUGGUGAGUCUGCGAAUUCUGCUGUAUAUCUC", "note": "[C32A C40A A57G]", "self-cleavage": 0.1}
{"variant": "UAACAGGGGGCCACAGCAGAAGCGUUCACGUAGCAGCCCUUGUCAGAUUCCGGUGAAUCUGCGAGUUCUGCUGUAUAUCUC", "note": "[C32A C40U U51C A65G]", "self-cleavage": 0.09}
{"variant": "UAACAGGGGGCCACAGCAGAAGCGUUCACGUAGCAGCCCCUGUCAGAUUUGGGUGAAUCUGCGGAUUCUGCUGUAUAUCUC", "note": "[C32A C50U U51G A64G]", "self-cleavage": 0.2}
{"variant": "UAACAGGGGGCCACAGCAGAAGCGUUCACGUAGCAGCCCCUGUCAAAUUCUGGUGAAUCUGCGAACUCUGCUGUAUAUCUC", "note": "[C32A G46A U66C]", "self-cleavage": 0.08}
{"variant": "UAACAGGGGGCCACAGCAGAAGCGUUCACGUAGCAGCCCCAGUCAGAUUCUGGUGAAUCUGCGAAUUUUGCUGUAUAUCUC", "note": "[C32A U41A C68U]", "self-cleavage": 0.14}
{"variant": "UAACAGGGGGCCACAGCAGAAGCGUUCACGUAGCAGCCCCAGUCAGAUUCUGGAGAACCUGCGAGUUCUGCUGUAUUUCUC", "note": "[C32A U41A U54A U58C A65G A77U]", "self-cleavage": 0.07}
